# Assay results taken from the supplement of paper PMC8728848.
# The list shows a part of the results.
# Experiments:
# Test in all cases: glycan array binding signal (z-score within array); higher = stronger binding
# Conditions in all cases: glycan notation: IUPAC condensed, linker removed
# [1] = target: GalNAc(b1-3)Gal
# How it was run: (§1)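 Columns mapping to the same glycan were averaged after glycan names were converted to IUPAC-condensed notation. The data come from 3228 arrays in the Consortium for Functional Glycomics database, limited to those with an available protein sequence. Binding is reported as a within-array Z-score averaged across arrays of one protein sequence and across linkers.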
# [2] = target: GalNAc(b1-3)Gal(a1-4)Gal(b1-4)GlcNAc
# How it was run: as §1
# [3] = target: GalNAc(b1-3)Gal(a1-4)Gal(b1-4)GlcNAc(b1-3)Gal(b1-4)Glc
# How it was run: as §1
# [4] = target: GalNAc(b1-3)Gal(a1-6)Gal(b1-4)Glc
# How it was run: as §1
# [5] = target: GalNAc(b1-3)GalNAc
# How it was run: as §1
# [6] = target: GalNAc(b1-3)GlcNAc
# How it was run: as §1
# [7] = target: GalNAc(b1-4)Gal(b1-4)Glc
# How it was run: as §1
# [8] = target: GalNAc(b1-4)GlcNAc
# How it was run: as §1
# [9] = target: GalNAc(b1-4)GlcNAc(b1-2)Man
# How it was run: as §1
# [10] = target: GalNAc(b1-4)GlcNAc(b1-2)Man(a1-3)[GalNAc(b1-4)GlcNAc(b1-2)Man(a1-6)]Man(b1-4)GlcNAc(b1-4)GlcNAc
# How it was run: as §1
# [11] = target: GalNAc(b1-4)GlcNAc(b1-3)GalNAc(b1-4)GlcNAc
# How it was run: as §1
# [12] = target: GalNAc(b1-4)GlcNAc6S
# How it was run: as §1
# [13] = target: GalNAc(b1-6)GalNAc
# How it was run: as §1
# [14] = target: GalNAc3S(b1-4)GlcNAc
# How it was run: as §1
# [15] = target: GalNAc3S(b1-4)GlcNAc3S
# How it was run: as §1
# [16] = target: GalNAc3S(b1-4)[Fuc(a1-3)]GlcNAc
# How it was run: as §1
# [17] = target: GalNAc4S6S(b1-4)GlcNAc
# How it was run: as §1
# [18] = target: GalNAc6S(b1-4)GlcNAc
# How it was run: as §1
# [19] = target: Glc(a1-4)Glc
# How it was run: as §1
# [20] = target: Glc(a1-4)Glc(a1-4)Glc(a1-4)Glc
# How it was run: as §1
# [21] = target: Glc(a1-6)Glc(a1-6)Glc
# How it was run: as §1
# [22] = target: Glc(a1-6)Glc(a1-6)Glc(a1-6)Glc
# How it was run: as §1
# [23] = target: Glc(b1-4)Glc
# How it was run: as §1
# [24] = target: Glc(b1-6)Glc
# How it was run: as §1
# [25] = target: GlcA(b1-3)Gal
# How it was run: as §1
# [26] = target: GlcA(b1-3)GlcNAc
# How it was run: as §1
# [27] = target: GlcA(b1-6)Gal
# How it was run: as §1
# [28] = target: GlcA3S(b1-3)Gal(b1-4)GlcNAc(b1-2)Man
# How it was run: as §1
# [29] = target: GlcA3S(b1-3)Gal(b1-4)GlcNAc(b1-3)Gal(b1-4)Glc
# How it was run: as §1
# [30] = target: GlcNAc(a1-3)Gal(b1-4)GlcNAc
# How it was run: as §1
# [31] = target: GlcNAc(a1-4)Gal(b1-3)GlcNAc
# How it was run: as §1
# [32] = target: GlcNAc(a1-4)Gal(b1-4)GalNAc
# How it was run: as §1
# [33] = target: GlcNAc(a1-4)Gal(b1-4)GlcNAc
# How it was run: as §1
# [34] = target: GlcNAc(a1-4)Gal(b1-4)GlcNAc(b1-3)Gal(b1-4)Glc
# How it was run: as §1
# [35] = target: GlcNAc(a1-4)Gal(b1-4)GlcNAc(b1-3)Gal(b1-4)GlcNAc
# How it was run: as §1
# [36] = target: GlcNAc(a1-4)Gal(b1-4)GlcNAc(b1-3)Gal(b1-4)GlcNAc(b1-3)Gal(b1-4)GlcNAc
# How it was run: as §1
# [37] = target: GlcNAc(a1-4)Gal(b1-4)GlcNAc(b1-3)Gal(b1-4)[Fuc(a1-3)]GlcNAc(b1-3)Gal(b1-4)[Fuc(a1-3)]GlcNAc
# How it was run: as §1
# [38] = target: GlcNAc(a1-6)Gal(b1-4)GlcNAc
# How it was run: as §1
binder,measurement,setting,value
Cohesin-marm-DC-ASGPR (protein) LDITSHHHHHHDDLDAVRIKVDTVNAKPGDTVRIPVRFSGIPSKGIANCDFVYSYDPNVLEIIEIEPGDIIVDPNPDKSFDTAVYPDRKIIVFLFAEDSGTGAYAITKDGVFATIVAKVKEGAPNGLSVIKFVEVGGFANNDLVEQKTQFFDGGVNVGDTTEPATPTTPVTTPTTTDDLDAASSKFQRDLVTLRTDFSNFTSNTLAEIQALTSQGSSLQETIASLKAEVEGHKQELQAGASELQEHNKQKAHLGRCPHTCVCPSSFVCVPVHSEILLRVQQLVQDLNKLSCQVAILKNNATTERTCCPINWVEHQGSCYWFSRSGKTWPEAERYCQLENTHLVVINSREEQNFVQAHLGSAYTWMGLSDPEGVWKWVDGTDYSSGFQNWKPGQPDDWQGHGLGGGEDCAHFHPDGRWNDDVCQRSYHWVCEAGLTQASQDSHAS,glycan array binding signal (z-score),[1],4.04
same,glycan array binding signal (z-score),[2],4.11
same,glycan array binding signal (z-score),[3],4.05
same,glycan array binding signal (z-score),[4],2.39
same,glycan array binding signal (z-score),[5],-0.307
same,glycan array binding signal (z-score),[6],3.78
same,glycan array binding signal (z-score),[7],-0.227
same,glycan array binding signal (z-score),[8],4.21
same,glycan array binding signal (z-score),[9],4.13
same,glycan array binding signal (z-score),[10],0.719
same,glycan array binding signal (z-score),[11],3.9
same,glycan array binding signal (z-score),[12],4.56
same,glycan array binding signal (z-score),[13],-0.303
same,glycan array binding signal (z-score),[14],-0.303
same,glycan array binding signal (z-score),[15],-0.258
same,glycan array binding signal (z-score),[16],-0.308
same,glycan array binding signal (z-score),[17],-0.304
same,glycan array binding signal (z-score),[18],4
same,glycan array binding signal (z-score),[19],-0.253
same,glycan array binding signal (z-score),[20],-0.302
same,glycan array binding signal (z-score),[21],-0.276
same,glycan array binding signal (z-score),[22],-0.298
same,glycan array binding signal (z-score),[23],-0.263
same,glycan array binding signal (z-score),[24],-0.189
same,glycan array binding signal (z-score),[25],-0.309
same,glycan array binding signal (z-score),[26],-0.25
same,glycan array binding signal (z-score),[27],-0.28
same,glycan array binding signal (z-score),[28],-0.309
same,glycan array binding signal (z-score),[29],-0.088
same,glycan array binding signal (z-score),[30],-0.294
same,glycan array binding signal (z-score),[31],-0.3
same,glycan array binding signal (z-score),[32],-0.304
same,glycan array binding signal (z-score),[33],-0.312
same,glycan array binding signal (z-score),[34],-0.312
same,glycan array binding signal (z-score),[35],-0.311
same,glycan array binding signal (z-score),[36],-0.305
same,glycan array binding signal (z-score),[37],-0.161
same,glycan array binding signal (z-score),[38],-0.276
